# Assay results reported in the supplement of paper PMC9135407.
# “And” between values parts separate entries of the source, which are not always exact repeats. Equal values may be shown once. Where a name gives a salt, the structure may show the parent alone. Hit rate of the full screen: of about 5,800 compounds, about 620 (11%) showed activity.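 The calls were made as follows: active = score above a cut-off or among the top three wells of a plate; in these data no inactive exceeds 0.85.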 The list shows a part of the results, in another mix than the full data.
# Test system: primary human hepatic stellate cells (donor 1)
# Experiment: scaled lipid accumulation score (0 = DMSO-like, 1 = nortriptyline-like); higher = stronger HSC inactivation (lipid re-accumulation), active = hit call of the paper
# Conditions: 48 h
# Experimental: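 Primary lipid accumulation screen in primary human hepatic stellate cell myofibroblasts (donor 1, passage 8) in 384-well plates. 100 nL of library compound was pin-transferred into 30 µL medium in duplicate, and cells were treated for 48 h. The 'Scaled' score combines distance from plate baseline, toxicity and reproducibility penalties, and is normalised to nortriptyline (positive) and DMSO (negative) controls on each plate. A hit is defined as scaled >0.85 or among the top 3 wells per plate.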
# [1] = library stock concentration: 10 mM
# [2] = library stock concentration: 8.3 mM
# [3] = library stock concentration: 1 mM
# [4] = library stock concentration: 3.33 mM
# [5] = library stock concentration: 5.9 mM
# [6] = library stock concentration: 2 mM
smiles,measurement,setting,value
CC[C@@H](CO)NC(=O)[C@@H]1C=C2c3cccc4[nH]cc(c34)C[C@H]2N(C)C1 [Methylergonovine maleate],scaled lipid accumulation score,library stock concentration: 4.4 mM,inactive: ≤ -0.001
same,scaled lipid accumulation score,[1],inactive: ≤ 0 and inactive: 0.136
CC[C@@H](CO)NC(=O)[C@@H]1C=C2c3cccc4[nH]cc(c34)C[C@H]2N(C)C1 [Methylergometrine maleate],scaled lipid accumulation score,,inactive: ≤ 0
same,scaled lipid accumulation score,[1],inactive: ≤ 0
CCC1(C2=NCCN2)Cc2ccccc2O1 (stereo not given) [Efaroxan],scaled lipid accumulation score,library stock concentration: 9.2 mM,inactive: 0.018
CCC1(C2=NCCN2)Cc2ccccc2O1 (stereo not given) [Efaroxan hydrochloride],scaled lipid accumulation score,[1],inactive: 0.514 and inactive: ≤ 0
"COc1ccc2c(c1OC)C(=O)O[C@H]2[C@H]1c2cc3c(cc2CCN1C)OCO3 [1r,9s-hydrastine]",scaled lipid accumulation score,[1],inactive: ≤ 0
CN(C)c1ccc(/C=C2\CCCN=C2c2cccnc2)cc1 [DMAB-anabaseine dihydrochloride],scaled lipid accumulation score,[1],inactive: 0.17
CN(C)C(=S)SSC(=S)N(C)C [Thiram],scaled lipid accumulation score,[2],active: 0.965
C=C1[C@@H](C)[C@H]2[C@H](Cc3ccccc3)NC(=O)C23[C@H](OC(C)=O)/C=C/[C@](C)(O)C(=O)[C@@H](C)C/C=C/[C@H]3[C@@H]1O (stereo not given in full) [Cytochalasin D],scaled lipid accumulation score,library stock concentration: 9.9 mM,active: 0.918
Cc1onc(O)c1CC(N)C(=O)O (racemic),scaled lipid accumulation score,[1],inactive: ≤ 0
Cc1onc(O)c1CC(N)C(=O)O (racemic) [(RS)-AMPA hydrobromide],scaled lipid accumulation score,[1],inactive: 0.001
NC(=S)N/N=C/c1coc2ccccc2c1=O.[Cl][Cu][Cl],scaled lipid accumulation score,[1],inactive: 0.073
COc1cc(CNC(=O)CCCCCCC(C)C)c(I)cc1O,scaled lipid accumulation score,[3],inactive: ≤ 0
"CN1CCC2(C)c3cc(O)ccc3N(C)C12 (single isomer, unassigned; (-)) [(-)-Eseroline fumarate salt]",scaled lipid accumulation score,,inactive: 0.065
O=C(NCCN1CCC2(CC1)C(=O)NCN2c1ccccc1)c1ccc2ccccc2c1,scaled lipid accumulation score,[3],inactive: ≤ 0
CC(=O)[C@H]1CC[C@H]2[C@@H]3CC[C@H]4C[C@H](O)CC[C@]4(C)[C@H]3CC[C@]12C [5alpha-Pregnan-3alpha-ol-20-one],scaled lipid accumulation score,[1],inactive: ≤ 0
CC(C)(C)c1cc(C=C(C#N)C#N)cc(Br)c1O,scaled lipid accumulation score,[4],inactive: ≤ 0
same,scaled lipid accumulation score,[1],inactive: ≤ 0
CC(C)[C@]12O[C@H]1[C@@H]1O[C@]13[C@]1(O[C@H]1C[C@H]1C4=C(CC[C@@]13C)C(=O)OC4)[C@@H]2O,scaled lipid accumulation score,[1],inactive: ≤ 0
CC(C)[C@]12O[C@H]1[C@@H]1O[C@]13[C@]1(O[C@H]1C[C@H]1C4=C(CC[C@@]13C)C(=O)OC4)[C@@H]2O [Triptolide (PG490)],scaled lipid accumulation score,[4],inactive: ≤ 0
same,scaled lipid accumulation score,[1],inactive: 0.22
CCOC(=O)CC(SP(=S)(OC)OC)C(=O)OCC (stereo not given),scaled lipid accumulation score,[1],inactive: ≤ 0
NCC(CC(=O)O)c1ccc(Cl)cc1 (stereo not given) [Baclofen],scaled lipid accumulation score,library stock concentration: 9.4 mM,inactive: ≤ 0
same,scaled lipid accumulation score,[1],inactive: ≤ 0
NCC(CC(=O)O)c1ccc(Cl)cc1 (stereo not given),scaled lipid accumulation score,[1],inactive: 0.201
"CN1CC[C@@]2(C)c3cc(O)ccc3N(C)C12 (single isomer, unassigned; (-)) [(-)-Eseroline fumarate]",scaled lipid accumulation score,[1],inactive: 0.246
"Cc1cc(C)cc(C(=O)OC2C[C@H]3CC[C@@H](C2)N3C)c1 (stereo not given in full) [Tropanyl-3,5-dimethylbenzoate]",scaled lipid accumulation score,[1],inactive: 0.57
Oc1ccc2c3c1O[C@H]1c4[nH]c5ccccc5c4C[C@@]4(O)[C@@H](C2)N(CC2CC2)CC[C@]314 [Naltrindole HCl],scaled lipid accumulation score,library stock concentration: 4.8 mM,inactive: 0.264
Oc1ccc2c3c1O[C@H]1c4[nH]c5ccccc5c4C[C@@]4(O)[C@@H](C2)N(CC2CC2)CC[C@]314 [Naltrindole],scaled lipid accumulation score,[1],inactive: 0.713
CN(C)[C@@H]1C(=O)C(C(N)=O)=C(O)[C@@]2(O)C(=O)C3=C(O)c4c(O)cccc4[C@@](C)(O)[C@H]3C[C@@H]12 [Tetracycline HCl],scaled lipid accumulation score,[4],inactive: ≤ 0
same,scaled lipid accumulation score,[1],inactive: ≤ 0
CC(NC(C)(C)C)C(=O)c1cccc(Cl)c1 (stereo not given) [Bupropion hydrochloride],scaled lipid accumulation score,,inactive: ≤ 0
same,scaled lipid accumulation score,[1],inactive: ≤ 0
CC(NC(C)(C)C)C(=O)c1cccc(Cl)c1 (stereo not given),scaled lipid accumulation score,[1],inactive: 0.09
CC(NC(C)(C)C)C(=O)c1cccc(Cl)c1 (stereo not given) [Amfebutamone],scaled lipid accumulation score,[2],inactive: ≤ -0.006
CC(NC(C)(C)C)C(=O)c1cccc(Cl)c1 (stereo not given) [Bupropion],scaled lipid accumulation score,library stock concentration: 7.2 mM,inactive: 0.39
same,scaled lipid accumulation score,[1],inactive: 0.07
CC(NC(C)(C)C)C(=O)c1cccc(Cl)c1 (stereo not given) [Amfebutamone HCl],scaled lipid accumulation score,[4],inactive: 0.025
same,scaled lipid accumulation score,[1],inactive: ≤ 0
C=C/C=C\CC1=C(C)[C@@H](OC(=O)[C@@H]2[C@@H](/C=C(\C)C(=O)OC)C2(C)C)CC1=O.C=C/C=C\CC1=C(C)[C@@H](OC(=O)[C@@H]2[C@@H](C=C(C)C)C2(C)C)CC1=O,scaled lipid accumulation score,[1],inactive: ≤ 0
NCc1cccnc1,scaled lipid accumulation score,[1],inactive: 0.039
NC(CP(=O)(O)O)C(=O)O (stereo not given),scaled lipid accumulation score,[1],inactive: 0.082
CN[C@@H]1[C@@H](O)[C@@H](O[C@@H]2[C@@H](O)[C@H](O[C@H]3O[C@H](CN)CC[C@H]3N)[C@@H](N)C[C@H]2N)OC[C@]1(C)O.CN[C@@H]1[C@@H](O)[C@@H](O[C@@H]2[C@@H](O)[C@H](O[C@H]3O[C@H]([C@@H](C)N)CC[C@H]3N)[C@@H](N)C[C@H]2N)OC[C@]1(C)O.CN[C@@H]1[C@@H](O)[C@@H](O[C@@H]2[C@@H](O)[C@H](O[C@H]3O[C@H]([C@@H](C)NC)CC[C@H]3N)[C@@H](N)C[C@H]2N)OC[C@]1(C)O [Gentamicin sulfate],scaled lipid accumulation score,library stock concentration: 3.5 mM,inactive: ≤ -0.001
same,scaled lipid accumulation score,[1],inactive: 0.022
CN[C@@H]1[C@@H](O)[C@@H](O[C@@H]2[C@@H](O)[C@H](O[C@H]3O[C@H](CN)CC[C@H]3N)[C@@H](N)C[C@H]2N)OC[C@]1(C)O.CN[C@@H]1[C@@H](O)[C@@H](O[C@@H]2[C@@H](O)[C@H](O[C@H]3O[C@H]([C@@H](C)N)CC[C@H]3N)[C@@H](N)C[C@H]2N)OC[C@]1(C)O.CN[C@@H]1[C@@H](O)[C@@H](O[C@@H]2[C@@H](O)[C@H](O[C@H]3O[C@H]([C@@H](C)NC)CC[C@H]3N)[C@@H](N)C[C@H]2N)OC[C@]1(C)O [Gentamicine sulfate],scaled lipid accumulation score,,inactive: ≤ 0
"CN1CCc2cc(O)cc3c2[C@H]1Cc1ccc(O)c(O)c1-3 [R(-)-2,10,11-Trihydroxyaporphine hybrobromide]",scaled lipid accumulation score,[1],inactive: ≤ -0.07
Cn1c(CCCC(=O)O)nc2cc(N(CCCl)CCCl)ccc21 [Bendamustine hydrochloride],scaled lipid accumulation score,[1],inactive: 0.247
Cn1c(CCCC(=O)O)nc2cc(N(CCCl)CCCl)ccc21 [Bendamustine HCl],scaled lipid accumulation score,[4],inactive: ≤ 0
same,scaled lipid accumulation score,[1],inactive: ≤ 0
COc1ccc2c(c1O)-c1c(OC)c(OC)cc3c1[C@H](C2)N(C)CC3 [S-isocorydine (+)],scaled lipid accumulation score,[1],inactive: ≤ 0
COc1ccc2c(c1O)-c1c(OC)c(OC)cc3c1[C@H](C2)N(C)CC3 [Isocorydine (+)],scaled lipid accumulation score,,inactive: 0.076
NC(=O)c1cc([N+](=O)[O-])cc([N+](=O)[O-])c1 [Nitromide],scaled lipid accumulation score,library stock concentration: 9.5 mM,inactive: ≤ -0.001
same,scaled lipid accumulation score,[1],inactive: ≤ 0
O=C1CC[C@@]2(O)[C@H]3Cc4ccc(O)c5c4[C@@]2(CCN3CC2CC2)[C@H]1O5 [Naltrexone HCl],scaled lipid accumulation score,[4],inactive: ≤ 0
same,scaled lipid accumulation score,[5],inactive: ≤ -0.006
same,scaled lipid accumulation score,[1],inactive: 0.025
O=C1CC[C@@]2(O)[C@H]3Cc4ccc(O)c5c4[C@@]2(CCN3CC2CC2)[C@H]1O5 [Naltrexone hydrochloride dihydrate],scaled lipid accumulation score,,inactive: ≤ 0
O=C1CC[C@@]2(O)[C@H]3Cc4ccc(O)c5c4[C@@]2(CCN3CC2CC2)[C@H]1O5 [Naltrexone hydrochloride],scaled lipid accumulation score,[5],inactive: 0.019
same,scaled lipid accumulation score,[1],inactive: ≤ -0.045 and inactive: ≤ -0.027
O=C1Nc2ccc(Cl)cc2C(c2ccccc2Cl)=NC1O (stereo not given) [Lorazepam],scaled lipid accumulation score,[1],inactive: ≤ 0
C[C@@H]1O[C@@H](O[C@H]2C[C@@H](O)[C@]3(CO)[C@H]4[C@H](O)C[C@]5(C)[C@@H](C6=CC(=O)OC6)CC[C@]5(O)[C@@H]4CC[C@]3(O)C2)[C@H](O)[C@H](O)[C@H]1O [Ouabain],scaled lipid accumulation score,[1],active: 1.13
[O-][n+]1ccccc1[S-].[O-][n+]1ccccc1[S-].[Zn+2] [Pyrithione zinc],scaled lipid accumulation score,library stock concentration: 6.3 mM,inactive: 0.435
same,scaled lipid accumulation score,[1],inactive: 0.127
CO[C@H]1CC[C@@H](O[C@H]2C[C@H]([C@]3(C)CC[C@]4(C[C@H](O)[C@@H](C)[C@@H]([C@@H](C)/C=C(\C)C(=O)[C@H](C)C[C@H](C)C(=O)O)O4)O3)O[C@]3(O[C@@H]([C@H]4O[C@@](O)(CO)[C@H](C)C[C@@H]4C)C[C@@H]3C)[C@@H]2C)O[C@@H]1C [Nanchangmycin],scaled lipid accumulation score,[4],active: 1.27
same,scaled lipid accumulation score,[1],inactive: 0.663
O=C(NC(COc1ccc2[nH]c(=O)[nH]c2c1)c1ccccc1)c1cccn(Cc2ccc(F)c(F)c2)c1=O (stereo not given),scaled lipid accumulation score,library stock concentration: 80 uM,inactive: ≤ 0
same,scaled lipid accumulation score,library stock concentration: 400 uM,inactive: ≤ 0
same,scaled lipid accumulation score,[6],inactive: ≤ 0
same,scaled lipid accumulation score,[1],inactive: ≤ 0
COc1ccc2c(c[n+](C)c3c4cc5c(cc4ccc23)OCO5)c1OC.Cl [Chelerythrine chloride],scaled lipid accumulation score,[6],active: 1.1
O[C@H]1[C@H](O)[C@@H](O)CN2CC[C@H](O)[C@H]12 [Castanospermine],scaled lipid accumulation score,[1],inactive: ≤ 0
same,scaled lipid accumulation score,library stock concentration: 26.4 mM,inactive: 0.125
c1cc2cc(N3CCNCC3)ccc2cn1 [6-piperazin-1-yl-Isoquinoline (hydrochloride)],scaled lipid accumulation score,[3],inactive: ≤ 0
C[C@]12CCC3C(CC[C@]4(O)C[C@@H](O)CC[C@]34C=O)[C@@]1(O)CCC2C1=CC(=O)OC1 (stereo not given in full) [Strophanthidin],scaled lipid accumulation score,[1],active: 1.12
